Laboratory results from PubChem BioAssay AID485344 (National Center for Advancing Translational Sciences (NCATS), 2010).
Among all 340,000 compounds or so, about 6,900 (2%) were called active. Rule as the data show it: active = inhibition above about 30%; inactive = below that, where a call was filed. Only a part is listed here, and it is no random draw. Entries without a call were filed so in the source.

Target: D(2) dopamine receptor (Homo sapiens) (UniProt P14416)
Experiment: HTS Assay for Allosteric Antagonists of the Human D2 Dopamine Receptor: Primary Screen for Antagonists; also: 0% is about no effect
Details: HEK293 TREx D2 cells, calcium flux, dopamine EC80; at 10 µM; stronger effect = higher value
How it was run: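 Dopamine at EC80 is the agonist stimulus; test compounds precede it by 180 s. Calcium flux read kinetically in a force-coupled, inducible HEK293 T-REx D2 cell line.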

Sequence of UniProt P14416 (P14416 whole entry, looked up): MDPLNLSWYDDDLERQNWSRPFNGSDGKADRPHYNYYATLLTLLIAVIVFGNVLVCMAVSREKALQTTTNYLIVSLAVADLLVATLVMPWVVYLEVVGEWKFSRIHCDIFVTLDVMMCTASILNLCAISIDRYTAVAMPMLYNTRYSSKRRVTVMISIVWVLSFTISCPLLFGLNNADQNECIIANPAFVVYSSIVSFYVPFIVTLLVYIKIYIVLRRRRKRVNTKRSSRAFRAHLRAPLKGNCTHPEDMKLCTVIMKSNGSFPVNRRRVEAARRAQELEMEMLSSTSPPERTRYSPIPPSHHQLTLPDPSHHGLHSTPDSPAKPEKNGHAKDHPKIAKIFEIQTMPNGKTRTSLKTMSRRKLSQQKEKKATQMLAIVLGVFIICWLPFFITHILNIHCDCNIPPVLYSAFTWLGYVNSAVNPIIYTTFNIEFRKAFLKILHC

Structure (SMILES)	inhibition
COc1ccc(NC(=O)C(Cc2c[nH]c3ccccc23)NC(=O)OC(C)(C)C)cc1 (centres undefined)	-5.21%
O=C(CSc1nc(=O)[nH]c2c1CCCC2)Nc1ccc(Cl)c(Cl)c1	-5.15%
COc1ccc(OC)c(/C=C/C(=O)Nc2ccc3c(c2)CCC3)c1	active: 49.4%
CCN(CC)C(=O)c1ccc2c(c1)N(Cc1c(F)cccc1Cl)C(=O)c1ccccc1S2	3.39%
Cc1ccc2cc3cc(C(=O)N4CCN(c5ccc(Cl)cc5)CC4)oc3nc2c1	2.51%
COc1cc2[nH]c(C(=O)NCC3CCCO3)cc2c(OC)c1OC (centres undefined)	active: 55.3%
Cc1ccccc1NC(=O)c1c(NC(=O)c2ccccc2)sc2c1CCC2	1.03%
O=C(COc1ccccc1Cl)Nc1ccccc1C(=O)Nc1cccc(C(=O)O)c1	active: 30.6%
CCN(CC)C(=O)c1sc2c(c1C)c(=O)n(-c1ccccc1)c(=O)n2Cc1c(C)cc(C)cc1C	-24.6%
COc1ccc(-c2cn3nc(N4CCC(C(=O)Nc5ccccc5OC)CC4)sc3n2)cc1	-23.8%
CCOc1ccc(NC(=O)CC2C(=O)N(c3ccccc3)C(=O)N2CCc2cccs2)cc1 (centres undefined)	-24.8%
OCCNC(=S)Nc1ccc2nsnc2c1	active: 30.7%
O=C(O)CC/C(=N\Nc1ccc(S(=O)(=O)N2CCOCC2)cc1[N+](=O)[O-])c1cccs1	active: 30%
COc1ccc(OC)c(NC(=O)CCCc2nnc3n(C(C)C)c(=O)c4sccc4n23)c1	7.69%
CCn1cc2nc(SCc3cccc(C(F)(F)F)c3)n(Cc3ccc(Cl)cc3)c(=O)c2n1	0.626%
Cc1ccc(Cl)cc1-n1nnc(-c2nsc(NC(=O)c3ccccc3Cl)n2)c1C	-15.4%
Cc1ccc2oc(C(=O)Nc3ccc(S(=O)(=O)N4CCCC(C)C4)cc3)cc(=O)c2c1 (centres undefined)	-12.7%
CCN(Cc1ccccc1)Cc1ccc(OCc2ccccc2)cc1	active: 31.1%
Cc1ccc(C)c(N2CCN(C(=O)c3cnn(C(C)(C)C)c3C3CCN(C(=O)OC(C)(C)C)CC3)CC2)c1	-4.62%
CCc1ccc(-n2c(=O)c3ccccc3n(CC(=O)NCCc3ccc(OC)c(OC)c3)c2=O)cc1	4.83%

Structure (SMILES)	inhibition
Cc1ccc(N(CC(=O)N2CCN(c3cccc(Cl)c3)CC2)S(=O)(=O)c2c(C)noc2C)cc1	-1.3%
COc1ccc(C)cc1NC(=O)N1CCC(CN2CCOCC2)CC1	3.65%
Cc1cc(C)cc(-n2ccnc(NCCc3ccccc3)c2=O)c1	2.77%
COc1ccc(C(=O)Nc2ccc3nc4c(c(Nc5ccc(OC)c(OC)c5)c3c2)CCCC4)c(OC)c1	-8.45%
CCOC(=O)c1cc2c(=O)n3ccccc3nc2n(CC(C)C)c1=NC(=O)COc1ccc(Cl)cc1	-7.01%
COc1ccc(-c2nc(CS(=O)CC(=O)NCCc3ccccc3)c(C)o2)cc1OC (centres undefined)	2.24%
Cc1ccc(CCNC(=O)c2sc3ncccc3c2-n2c(C)ccc2C)cc1	5.36%
CC1CCCCN1c1c(S(=O)(=O)c2ccc(Cl)cc2)cnc2ccccc12 (centres undefined)	2.52%
CCC(=O)Nc1ccc(CC)cc1-c1nc2ccccc2n(CC(=O)Nc2cccc(OC)c2)c1=O	10.5%
COc1cccc(C2=CC(c3ccccc3F)n3ncc(C(=O)Nc4ccc(C)cc4)c3N2)c1 (centres undefined)	1.05%
Cc1ccc(-n2nc(-c3ccc(F)cc3)c3cnc4cc5c(cc4c32)OCO5)cc1C	3.1%
COc1ccccc1-c1cc(C(=O)N/N=C/c2cccs2)c2ccccc2n1	active: 72.4%
Cc1ccc(Cl)cc1N1CCN(C(=O)CCSCc2ccccc2F)CC1	-13.6%
Cc1c(C(=O)Nc2ccc(Br)cc2F)oc2ccc(S(=O)(=O)N3CCC4(CC3)OCCO4)cc12	17.9%
CCc1ccc(-c2cc(C)no2)cc1S(=O)(=O)N1CCN(c2cccc(Cl)c2)CC1	6.74%
COc1ccc(NC(=O)c2oc3ccc(S(=O)(=O)N(C)C4CCCCC4)cc3c2C)cc1Cl	-24.8%
O=C(CCCc1nc(-c2ccco2)no1)Nc1ccccc1[N+](=O)[O-]	4.43%
COc1cccc(-n2c(=O)c3c4c(sc3n(Cc3ccc(F)cc3Cl)c2=O)CCCC4)c1	18.7%
COc1ccc(C2=NN(C(C)=O)C(c3cn(-c4ccccc4)nc3-c3cccs3)C2)cc1 (centres undefined)	8.69%
COc1ccc(-c2[nH]ncc2C(=O)NCc2cccc(F)c2)cc1	24.8%

Structure (SMILES)	inhibition
CCC1CCCCN1S(=O)(=O)c1ccc(N2CCCCS2(=O)=O)cc1 (centres undefined)	-3.21%
CC(=O)Nc1c(C(=O)Nc2cccc(C)c2)nnn1-c1ccc(C)cc1	14.5%
CCOC(=O)c1ccc(NC(=O)c2c(C)oc3nc(C)nc(N4CCCC4)c23)cc1	4.66%
Cn1c(=O)c2c(SCC(=O)NCc3ccco3)nc(-c3ccccc3F)nc2n(C)c1=O	-10.5%
CC(C)N1CC(COc2ccc(Br)cc2)OC1=O (centres undefined)	active: 41.2%
Cc1ccc(NC(=O)Nc2cc3c(cc2N2CCCCC2)n(C)c(=O)n3C)cc1Cl	-10.9%
COc1ccc(NC(=O)CC2C(=O)N(c3ccccc3)C(=O)N2Cc2cccnc2)cc1 (centres undefined)	3.42%
Cc1ccc(CN(C(=O)c2ccccc2Br)C2CCS(=O)(=O)C2)o1 (centres undefined)	2.88%
O=C(Nc1ccc2oc(-c3ccc4ccccc4c3)nc2c1)c1cc(Br)ccc1Cl	10.5%
O=C(NCc1ccc(Cl)cc1)C(=O)Nc1cccc(Br)c1	7.09%
CC1CCC(NC(=O)c2ccc3c(c2)N(Cc2cccc(Cl)c2)C(=O)c2ccccc2S3=O)CC1 (centres undefined)	-0.641%
O=C(Nc1ccccc1)c1cccc(N2C(=O)C3C4C=CC(C5CC45)C3C2=O)c1 (centres undefined)	active: 32.4%
CCN(CC)C(=O)c1sc(NC(=O)C2c3ccccc3Oc3ccccc32)c(C(=O)OC(C)C)c1C	-15.7%
Cc1cc(C)c(Cn2c(=O)n(CCCCCC(=O)NCc3ccc4c(c3)OCO4)c(=O)c3sccc32)c(C)c1	-8.99%
O=C(CSCc1ccc(F)cc1)N1CCN(c2ccccc2)CC1	2.97%
CN(C)c1ccc(C(CNS(=O)(=O)c2cc(F)ccc2F)N2CCOCC2)cc1 (centres undefined)	-2.71%
COc1cccc(NC(=O)Cn2c(=O)n(-c3cccc(OC)c3)c(=O)c3c4c(sc32)CCCC4)c1	-22.8%
CCOc1ccc(Nc2nc3ccccc3c3nnc(CC)n23)cc1	9.61%
COc1ccc(NS(=O)(=O)c2ccc3[nH]c4c(c3c2)CCCC4)c(OC)c1	6.2%
